Test results: PubChem BioAssay AID445 (National Center for Advancing Translational Sciences (NCATS), 2006)
The whole screen tested about 110,000 compounds, of which about 40 (0.04%) were called active. The shares of active, inactive and inconclusive entries below differ from those in the screen. Calls follow the shape of the dose curve; as a rule, active = well fitted curve in the direction sought with a large enough effect in the signal ratio (not every such curve was filed as active); inconclusive = small, poorly fitted or top-dose-only effect, or a change in a side signal; inactive = flat fitted curve, though single readings scatter; the % refers to the signal ratio. Potencies of inconclusive entries are doubtful fits and often do not repeat.

Assay: IkB Signaling;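 as to IkBa stabilization activation: 0% = basal untreated cells and 100% = reference inhibitor full response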
Conditions: ABC-DLBCL IkBa-CBG/CBR dual luciferase ratio (green luciferase fused to IkBa over red control in OCI-Ly3 lymphoma cells), 4 h, scaled: untreated 0%
How it was run: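 In this assay, an IκBα–CBG68 fusion accumulates when IKK-driven degradation is blocked; native CBR normalizes for cell number. OCI-Ly3 cells were treated 4 h with compound and doxycycline, then green and red light read after Chroma-Glo addition.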

[1] = IkBa stabilization activation: at 57.1 µM (top of the series), proteasome inhibitor 100% unless noted
Potency is read from the fitted curve at half-maximal effect.

## COc1ccc(CCNC(=O)c2cc(-c3ccccc3)on2)cc1OC
[1]
  Potency: inconclusive: 15.8 µM [signal inhibitor, partial curve]

## COc1ccc(CCNC(=O)Cc2c(C)c3ccc(O)c(C)c3oc2=O)cc1OC
[1]
  IkBa stabilization activation: inconclusive: -2.64% [signal inhibitor]

## CCOc1ccc(C2=C(C(C)=O)Sc3nnc(C)n3N2C(C)=O)cc1
[1]
  Potency: inconclusive: 31.6 µM [rising, single point]

## Cc1ccc(C(=O)N2CCc3cc(CNC(=O)c4ccccc4F)ccc32)cc1
[1]
  IkBa stabilization activation: inconclusive: 1.38% [signal inhibitor]

## COc1cccc(OC)c1OCCNC[C@@H]1COc2ccccc2O1
[1]
  IkBa stabilization activation: inconclusive: 0.406% [signal inhibitor]
At 57.1 µM (top of the series), proteasome inhibitor 100%
  IkBa stabilization activation: inactive: -4.03%

## O=C(CS(=O)(=O)c1ccc(Cl)cc1)Nc1nc2ccc(Br)cc2s1
[1]
  IkBa stabilization activation: inactive

## CCOC(=O)c1c(NC(=O)OC)sc2c1CCC2
[1]
  IkBa stabilization activation: inactive

## COc1cc(Cl)c(C)cc1NC(=O)Cn1cnc2sc(C)c(S(=O)(=O)N3CCCCC3)c2c1=O
[1]
  IkBa stabilization activation: inconclusive: 6.85% [signal inhibitor]

## Clc1ccc(-n2nnnc2-c2ccccc2)cc1
[1]
  IkBa stabilization activation: inactive

## CN(CC(=O)NCc1ccc(Cl)cc1)S(=O)(=O)c1ccc2c(c1)c(=O)n(C)c(=O)n2C
[1]
  IkBa stabilization activation: inconclusive: 0.00176% [signal inhibitor]

## CN(c1ccccc1C(=O)O)S(C)(=O)=O
[1]
  IkBa stabilization activation: inactive

## CCOC(=O)c1scc(-c2ccc(C)cc2)c1S(=O)(=O)Nc1cc(C)ccc1C
[1]
  IkBa stabilization activation: inactive

## CCOc1ccccc1NC(=O)Cn1c(=O)n(-c2ccc(C)c(C)c2)c(=O)c2c(C)c(C(=O)N(C)C)sc21
[1]
  IkBa stabilization activation: inactive

## CC(Nc1ncnc2c1cnn2-c1cccc(Cl)c1)c1ccccc1 (stereo not drawn)
[1]
  IkBa stabilization activation: inconclusive: 3.6% [signal inhibitor]

## COc1cccc(-c2nnc(SCC(=O)N3CCc4ccccc43)o2)c1
[1]
  IkBa stabilization activation: inconclusive: 3.72% [signal inhibitor]

## O=c1c(-c2ccc(Cl)cc2)nc2cncnc2n1Cc1ccccc1
[1]
  IkBa stabilization activation: inactive: 0.509% [at 11.4 µM, scaled: untreated 0%, proteasome inhibitor 100%]

## COc1ccc(C2CC(=O)N(Cc3cccc(C)c3)c3c2c(C)nn3-c2nc(C)cc(C)n2)c(OC)c1 (stereo not drawn)
[1]
  IkBa stabilization activation: inconclusive: 0.959% [signal inhibitor]

## COC(=O)c1sc2cccc(F)c2c1S(=O)(=O)NCc1ccc(F)cc1
[1]
  IkBa stabilization activation: inconclusive: 1.79% [signal inhibitor]

## CCOC(=O)c1cnc2c(Cl)c(Cl)ccc2c1Nc1ccc(N(C)C)cc1
[1]
  IkBa stabilization activation: inconclusive: 8.53% [signal inhibitor]

## Cc1ccccc1-n1c(=O)c2ccccc2n(Cc2ccc(F)cc2)c1=O
[1]
  IkBa stabilization activation: inconclusive: 4.97% [signal inhibitor]

## O=C(Nc1ccc(F)cc1)c1ncn(-c2ccccc2)n1
[1]
  Potency: inconclusive: 25.1 µM [signal inhibitor, partial curve]

## COc1ccc(CNC(=O)Cc2nn(C)c(=O)c3ccccc23)cc1
[1]
  IkBa stabilization activation: inconclusive: 9.49% [signal inhibitor]

## CCOC(=O)c1ccccc1NC(=O)CN(c1cc(C(F)(F)F)ccc1Cl)S(C)(=O)=O
[1]
  IkBa stabilization activation: inconclusive: 2.08% [signal inhibitor]

## COc1cccc(NC(=O)Cn2c(=O)c3cccn3c3ccc(F)cc32)c1
[1]
  IkBa stabilization activation: inactive

## COc1ccccc1-c1oc2ccccc2c(=O)c1OC
[1]
  IkBa stabilization activation: inactive: -0.347% [at 11.4 µM, scaled: untreated 0%, proteasome inhibitor 100%]

## Cc1cccc(-c2nnc(-c3ccc(N)cc3)o2)c1
[1]
  IkBa stabilization activation: inactive

## Cc1ccc2nc(NC(=O)C3CCCN(S(=O)(=O)c4cccc5nonc45)C3)sc2c1 (stereo not drawn)
[1]
  IkBa stabilization activation: inconclusive: 6.51% [signal inhibitor]

## CCCCSCCCNC(=O)c1cn(CC)c2ccc(S(=O)(=O)N(C)C3CCCCC3)cc2c1=O
[1]
  IkBa stabilization activation: inconclusive: 2.55% [signal inhibitor]

## CC(C)c1ccc(NC(=O)c2cccnc2)cc1
[1]
  IkBa stabilization activation: inactive

## c1ccc(-c2nc(NCc3ccco3)c3ccccc3n2)nc1
[1]
  Potency: inconclusive: 20 µM [signal inhibitor, partial curve]

## O=C(Cn1ccc2cc(S(=O)(=O)N3CCCCCC3)ccc21)NCCc1ccccc1Cl
[1]
  IkBa stabilization activation: inactive

## Cc1ccc(CCNC(=O)CCS(=O)(=O)c2ccc3c(c2)oc(=O)n3C)cc1
[1]
  IkBa stabilization activation: inconclusive: 0.792% [signal inhibitor]

## Cc1[nH]c(=O)[nH]c(=O)c1NC(=O)CSc1ncccc1-c1nc2ccccc2[nH]1
[1]
  Potency: inconclusive: 31.6 µM [signal inhibitor, partial curve]

## Cc1c(Cl)cccc1NC(=O)C1CCCN(C(=O)c2cnn(-c3ccccc3)c2-n2cccc2)C1 (stereo not drawn)
[1]
  IkBa stabilization activation: inconclusive: 0.655% [signal inhibitor]

## O=C(CN1C(=O)COc2ccc(S(=O)(=O)N3CCOCC3)cc21)Nc1ccc(F)c(Cl)c1
[1]
  IkBa stabilization activation: inconclusive: 1.24% [signal inhibitor]

## O=C(Nc1nc2c(F)cc(F)cc2s1)c1ccc2c(c1)OCCO2
[1]
  IkBa stabilization activation: inactive

## Cn1cccc1C(=O)N1CCC[C@@]2(CCN(c3ccncc3)C2)C1
[1]
  IkBa stabilization activation: inactive: 2.44% [at 11.4 µM, scaled: untreated 0%, proteasome inhibitor 100%]

## COc1cccc(C(=O)Nc2cccc(NC(C)=O)c2)c1
[1]
  IkBa stabilization activation: inactive

## Cc1cc(C)n(-c2nc3ccccc3nc2N2CCCCCC2)n1
[1]
  IkBa stabilization activation: inconclusive: 3.44% [signal inhibitor]

## O=C(Nc1nnc(Cc2ccccc2)s1)c1cccs1
[1]
  IkBa stabilization activation: inconclusive: 6.08% [signal inhibitor]

## O=C(Nc1cc(C(F)(F)F)ccc1Cl)c1cc(-c2cccs2)nc2ccccc12
[1]
  IkBa stabilization activation: inconclusive: 6.86% [signal inhibitor]

## O=C1CN(CC(=O)N2CCCCC2)c2ccccc2O1
[1]
  Potency: inconclusive: 3.16 µM [signal inhibitor, full curve]

## CN(Cc1ccco1)C(=O)Cn1c(=O)oc2cc(S(=O)(=O)NCc3ccccc3)ccc21
[1]
  IkBa stabilization activation: inactive

## COc1ccc2c(c1)Cc1cc(N=[N+]([O-])c3ccc4c(c3)Cc3cc(OC)ccc3-4)ccc1-2
[1]
  IkBa stabilization activation: inactive: 0.149% [at 11.4 µM, scaled: untreated 0%, proteasome inhibitor 100%]

## Cc1cc(S(=O)(=O)Nc2cc3c(cc2Cl)n(C)c(=O)c(=O)n3C)ccc1F
[1]
  IkBa stabilization activation: inconclusive: -0.0836% [signal inhibitor]

## COc1ccc(S(=O)(=O)NCC(c2cccnc2)N2CCN(c3ccccc3OC)CC2)cc1C (stereo not drawn)
[1]
  IkBa stabilization activation: inconclusive: 3.23% [signal inhibitor]

## CCOC(=O)c1cc(-c2ccc(OC)cc2)n(CCC(=O)NCc2ccccc2OC)c1C
[1]
  IkBa stabilization activation: inconclusive: 0.507% [signal inhibitor]

## Cc1ccsc1CN(Cc1ccco1)C(=O)c1ccc(Cl)cc1
[1]
  IkBa stabilization activation: inconclusive: 2.1% [signal inhibitor]

## CCNc1cc2n(c(=O)n1)CCc1cc(OC)c(OC)cc1-2
[1]
  IkBa stabilization activation: inactive

## O=c1c2ccccc2oc2cc(O)c([C@@H]3COC[C@@H](CO)[C@@H](O)[C@@H](O)[C@H]3O)c(O)c12
[1]
  IkBa stabilization activation: inactive: 0.311% [at 11.4 µM, scaled: untreated 0%, proteasome inhibitor 100%]

## COc1ccc(S(=O)(=O)N(Cc2ccccc2)Cc2nc(-c3ccccc3)no2)cc1
[1]
  IkBa stabilization activation: inconclusive: 3.26% [signal inhibitor]

## CCOC(=O)C1=C(CS(=O)(=O)c2ccc(C(C)(C)C)cc2)NC(=O)NC1c1cccc(OC)c1 (stereo not drawn)
[1]
  IkBa stabilization activation: inconclusive: 2.45% [signal inhibitor]

## COc1ccc(-c2ccc(-c3nnn(CC(=O)N4CCOCC4)n3)cc2)cc1
[1]
  IkBa stabilization activation: inactive

## Cc1cccc(NC(=O)CSc2nnc3[nH]c(=O)cc(C)n23)c1C
[1]
  IkBa stabilization activation: inactive

## O=C(NCc1cccnc1)c1noc2c1CCCC2
[1]
  IkBa stabilization activation: inconclusive: 10.4% [signal inhibitor]

## O=C(CSc1nnc(-c2ccc(F)cc2)o1)Nc1ccc(S(=O)(=O)N2CCCC2)cc1
[1]
  Potency: inconclusive: 25.1 µM [signal inhibitor, partial curve]

## Cc1cc(S(=O)(=O)Nc2cc3c(cc2NCc2ccccc2)n(C)c(=O)n3C)ccc1F
[1]
  Potency: inconclusive: 15.8 µM [signal inhibitor]

## COc1ccccc1CNc1ccnc(-c2ccc3c(c2)OCO3)n1
[1]
  IkBa stabilization activation: inactive: 8.81% [at 11.4 µM, scaled: untreated 0%, proteasome inhibitor 100%]

## O=C(CSCc1ccc(F)cc1)N1CCc2c([nH]c3ccccc23)C1c1ccc(F)cc1 (stereo not drawn)
[1]
  IkBa stabilization activation: inconclusive: 1.18% [signal inhibitor]

## CC(C)(C)C(=O)Nc1nnc2n1CCS2
[1]
  IkBa stabilization activation: inactive

## Cc1c(C(=O)Nc2cccc(C(F)(F)F)c2)oc2ccc(S(=O)(=O)N3CCC4(CC3)OCCO4)cc12
[1]
  IkBa stabilization activation: inconclusive: 1.67% [signal inhibitor]

## Cc1ccc2c(c1)N(C(=O)CCC(=O)Nc1ccc(F)cc1F)CC(C)O2 (stereo not drawn)
[1]
  IkBa stabilization activation: inconclusive: 0.974% [signal inhibitor]

## CCOc1ccccc1N(C)C(=O)c1cc(S(=O)(=O)NCCc2ccc(Cl)cc2)ccc1F
[1]
  IkBa stabilization activation: inconclusive: 1.62% [signal inhibitor]

## CC(C)(C)c1ccc(C(=O)N2CCC(c3noc(-c4ccc(S(=O)(=O)N5CCCC5)cc4)n3)CC2)cc1
[1]
  IkBa stabilization activation: inconclusive: -0.193% [signal inhibitor]

## CCOc1ccc(NC(=O)c2ccc3c(c2)nnn3C2CCCC2)cc1
[1]
  IkBa stabilization activation: inactive

## CCN(CC)S(=O)(=O)c1ccc(NC(=O)c2ccc3c(=O)n4c(nc3c2)CCCCC4)cc1
[1]
  IkBa stabilization activation: inconclusive: 7.2% [signal inhibitor]

## CCc1ccccc1NC(=O)CSc1nc(C)c(C(=O)Nc2ccccc2)c(-c2ccc(Cl)cc2)c1C#N
[1]
  IkBa stabilization activation: inconclusive: 10.1% [signal inhibitor]
